Out of some 94,000 compounds screened, about 6,200 (6.6%) were called active. Inconclusive means that the source gave no clear call. Such entries were picked first, then a sample of the others. The call rests on the fitted dose curve; in most records, active means well fitted inhibition curve with a large enough effect; inconclusive means small, poorly fitted or top-dose-only effect; inactive means flat fitted curve, though single readings scatter. Where the call is inconclusive, the potency comes from a doubtful curve fit.
Experiment: Cytotoxic Profiling in HEK 293 Cell Line of Diverse Libraries Using Quantitative High-Throughput Screening; further: nearly all actives have a fitted effect of over 60% in size
Settings: HEK 293 viability, ATP luminescence (CellTiter-Glo), 48-72 h; series mostly up to 115 µM
Outline: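 Luminescence from cellular ATP, measured with CellTiter-Glo, indicates HEK 293 viability. Cells plated at 250 cells/well are treated with compound for 48 or 72 hr at 37 degree Celsius before reagent addition.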
Potency means the concentration at half of the fitted maximal effect; tags describe the fitted curve by direction and shape.

Row | SMILES | Potency
1 | O=C(NCC1CC1)c1cccc(OC2CN(C3CCCCC3)C2)c1 | inactive
2 | COc1ccc(NC(=O)CCn2ccn3nc4c(c3c2=O)CCCC4)cc1 | inconclusive: 50.1 µM [inhibitor, partial curve, poor fit]
3 | CCOC(=O)[C@H]1CCOCC[C@H]1N(Cc1ccccc1)C(=O)OCC(C)C | inconclusive: 56.2 µM [inhibitor, partial curve, poor fit]
4 | COc1ccc(C(=O)N[C@@H]2CCC[C@@H]2C(=O)N2CCN(c3cc(C)ccc3C)CC2)cc1 | inconclusive: 89.1 µM [inhibitor, single point]
5 | COCc1nc(CCNC(=O)C2CC2)no1 | inactive
6 | Cn1ncc(N2CCCC(CC(=O)Nc3ccc(F)c(F)c3)C2)cc1=O (stereo unspecified) | inconclusive: 25.1 µM [inhibitor, partial curve]
7 | O=C(NC[C@H]1O[C@@H](CO)[C@@H](O)[C@H]1N1CCN(c2cccc(C(F)(F)F)c2)CC1)Nc1ccccc1 | inconclusive: 79.4 µM [inhibitor, partial curve]
8 | Cc1ccc(CCCN2CCOc3ccc(C(=O)NCc4ccccc4F)cc3C2)o1 | inconclusive: 56.2 µM [inhibitor, partial curve, poor fit]
9 | Cc1ccc2oc(=O)n(CCC(=O)N[C@@H]3COCC[C@@H]3OCC3CC3)c2c1 | inactive
10 | CS(=O)(=O)N1C[C@H]2CCN(C(=O)c3ccncc3F)C[C@H]21 | inactive
11 | O=C(NCc1ccc(F)cc1)N1CC(c2nnc(-c3ccncc3)o2)C2(CCOCC2)C1 (stereo unspecified) | inconclusive: 2.82 µM [inhibitor, full curve, poor fit]
12 | CCOc1ccccc1C(=O)N1CCC(Cc2nc(-c3ccc(F)cc3)no2)CC1 | inconclusive: 50.1 µM [inhibitor, partial curve, poor fit]
13 | COc1ccc(NC(=O)Nc2cnc3c(c2)CCC3)cc1 | inactive
14 | CCOc1cccc(-c2nc(C(=O)NCC3CCCO3)cs2)c1 (stereo unspecified) | inconclusive: 79.4 µM [inhibitor, partial curve, poor fit]
15 | COc1cccc(C(=O)NCc2nnc3ccc(-c4ccc(C)cc4)nn23)c1OC | inconclusive: 31.6 µM [inhibitor, partial curve]
16 | CN1CC(=O)N(C2CCCCC2)Cc2c(NC3CCCC3)ncnc21 | inactive
17 | O=C(c1ccc(F)cc1)N1CCC2(CC1)C(=O)NCN2Cc1ccc(Cl)cc1 | inconclusive: 89.1 µM [inhibitor, partial curve, poor fit]
18 | COC(=O)c1ccc2nc(C[C@@H]3C[C@@H](C(C)C)[C@H](CNC(=O)CN(C)C)C=C3C)[nH]c2c1 | active: 35.5 µM
19 | O=C(Nc1ccc(Cl)cc1)N1Cc2[nH]cnc2C[C@H]1c1nc(-c2ccc(F)c(Cl)c2)no1 | inconclusive: 50.1 µM [inhibitor, partial curve, poor fit]
20 | CNc1nccc(N2CCC(CC(=O)N3CCN(c4cccc(OC)c4)CC3)CC2)n1 | active: 25.1 µM
21 | CCN1c2cc(C(=O)Nc3ccc(F)c(Cl)c3)ccc2C(=O)N2CCCC21 (stereo unspecified) | inconclusive: 44.7 µM [inhibitor, partial curve, poor fit]
22 | O=C(c1ccc(Cl)nc1)N1CCCC(c2nn(-c3ccccn3)c(=O)[nH]2)C1 (stereo unspecified) | inactive

Row | SMILES | Potency
23 | O=C1CC(c2ccccc2)N(C(=O)CNC(=O)c2[nH]nc3c2CCc2ccccc2-3)CCCCCN1 (stereo unspecified) | inconclusive: 56.2 µM [inhibitor, partial curve, poor fit]
24 | COc1ccc(-c2c(C(=O)NCCCc3ccccc3)nc3sccn23)cc1 | inconclusive: 56.2 µM [inhibitor, partial curve, poor fit]
25 | COc1ccccc1C(=O)N1CCC2(CC1)OC(=O)N(Cc1ccccc1C#N)C2(C)c1ccccc1 (stereo unspecified) | inconclusive: 50.1 µM [inhibitor, partial curve, poor fit]
26 | CCC(c1cn2cccnc2n1)n1ccnc1-c1cc2n(n1)CCCNC2 (stereo unspecified) | inactive
27 | CN(C)c1ccc(-c2nnc([C@H]3CCN(CC4CCCCC4)C3)o2)cc1 | active: 100 µM
28 | CCN1CCN(CCN2CC3(CCN(C(=O)[C@H](C)NC)CC3)OC2=O)CC1 | inactive
29 | CNC(=O)c1cc(C)nc2onc(C3CCN(C(=O)c4ccc(OC)cc4)C3)c12 (stereo unspecified) | inactive
30 | COc1ccc(NC(=O)N2CCC(Oc3ccc(-c4noc(C5CC5)n4)cc3)C2)cc1 (stereo unspecified) | inconclusive: 89.1 µM [inhibitor, partial curve, poor fit]
31 | N#Cc1ccc(-c2c(-c3ccccc3)ncn2CCNc2cccnc2)cc1 | inactive
32 | COCC(=O)NC1CCCc2c1[nH]c1c(Cl)cccc21 (stereo unspecified) | inconclusive: 79.4 µM [inhibitor, single point]
33 | O=C(Cc1ccccc1)N1CCC2(CC1)CC(N(Cc1ccc(F)cc1)C1CC1)CCO2 (stereo unspecified) | inconclusive: 50.1 µM [inhibitor, partial curve, poor fit]
34 | COc1ccc(-c2ccc3c(n2)CN(Cc2ccccc2C)C(=O)CO3)cc1OC | inconclusive: 39.8 µM [inhibitor, partial curve, poor fit]
35 | O=C(COc1ccc(F)cc1)N1CC(c2noc(COc3ccccc3)n2)C1 | inconclusive: 79.4 µM [inhibitor, partial curve, poor fit]
36 | Cc1nc(-c2ccc(OC3CCN(C(=O)NC(C)C)C3)cc2)no1 (stereo unspecified) | inconclusive: 28.2 µM [inhibitor, full curve]
37 | Cc1ccc([S+](=O)([O-])N2CCCC(C(=O)N3CCC4(CC3)CC(=O)Nc3ccccc3O4)C2)cc1 (stereo unspecified) | active: 35.5 µM
38 | CC(C)CCN1CCC(N2CCN(S(=O)(=O)c3ccc(CC(C)C)cc3)CC2)C1=O (stereo unspecified) | inconclusive: 44.7 µM [inhibitor, partial curve, poor fit]
39 | COc1ccccc1-c1nnc2ccc(C(=O)NCc3cccc(Cl)c3)cn12 | inconclusive: 50.1 µM [inhibitor, partial curve, poor fit]
40 | CCN1CCN(CCNC(=O)c2cc(-c3ccc(Cl)cc3)cn2C)CC1 | active: 25.1 µM
41 | c1cncc(Nc2cc3c(cn2)CN(Cc2ccsc2)CCN3)c1 | inconclusive: 89.1 µM [inhibitor, partial curve]
42 | NC(=O)[C@@H](Cc1c[nH]c2ccccc12)NC(=O)[C@H]1CN(C(=O)c2cccc(F)c2)CCN1C(=O)c1cccs1 | inactive
43 | O=C(NCC(F)F)C1CCCN(Cc2cccc(-c3cccs3)c2)C1 (stereo unspecified) | active: 89.1 µM
44 | COCCN1C(=O)CCC2(C(=O)NCCN(C)C3CCCCC3)CCCC=C12 (stereo unspecified) | inconclusive: 50.1 µM [inhibitor, partial curve, poor fit]

Row | SMILES | Potency
45 | Cc1noc(-c2cccc(OC3CN(C(=O)NCc4ccccc4)C3)c2)n1 | inconclusive: 35.5 µM [inhibitor, partial curve]
46 | COc1ccccc1-c1cccc(CN2CCC(NC(=O)c3cccc(Cl)c3)CC2)c1 | active: 44.7 µM
47 | COc1ccc(-c2noc([C@@H]3C[C@@H](O)CN3Cc3ccc(S(C)(=O)=O)cc3)n2)cc1 | inactive
48 | O=C(Cc1cccnc1)N1CCCC(Cc2noc(-c3ccccc3)n2)C1 (stereo unspecified) | inconclusive: 44.7 µM [inhibitor, partial curve, poor fit]
49 | COc1cccc(-c2nc(-c3c(C)noc3C)cc3c2cc(C)n3C)c1OC | inconclusive: 89.1 µM [inhibitor, partial curve]
50 | O=C(NCCc1ccncc1)C1CN(C(=O)c2ccc(F)cc2)CC12CCOCC2 (stereo unspecified) | inactive
51 | COc1ccc(CCNC(=O)CN2C(=O)C(c3ccccc3)=NC23CCCCC3)cc1OC | inconclusive: 79.4 µM [inhibitor, single point]
52 | COc1cccc(CNC(=O)C2CCCN2Cc2ccc(-c3cncnc3)cc2)c1 (stereo unspecified) | inactive
53 | N#Cc1cccc(-c2c(C(=O)NC3CC3)nc3sccn23)c1 | inactive
54 | Cc1cccc(CC(=O)NCC2Cn3cccc3C(=O)N2C)c1 (stereo unspecified) | inconclusive: 35.5 µM [inhibitor, full curve, poor fit]
55 | O=C(Nc1cccc(Cl)c1)c1nc2sccn2c1-c1cccnc1 | inactive
56 | Cc1ccc(C2NC(=O)N(CC(=O)Nc3ccccc3F)C3=C2C(=O)OC3)cc1 (stereo unspecified) | inconclusive: 25.1 µM [inhibitor, full curve]
57 | Cc1ccccc1-n1nc(C)c(CCC(=O)N(C)C(C)C)c1Oc1ccccc1F | active: 44.7 µM
58 | CC(=O)N1CC2(CCN(Cc3cc4ccccc4[nH]3)C2)Cc2ccccc21 (stereo unspecified) | inconclusive: 56.2 µM [inhibitor, partial curve, poor fit]
59 | COc1ccc(OC)c(NC(=O)Cn2c(-c3ccc(F)cc3)nc(C)cc2=O)c1 | inconclusive: 89.1 µM [inhibitor, single point]
60 | CC1(C(=O)Nc2ccc(C(N)=O)cc2)CCCc2cnc(Nc3ccccc3)nc21 (stereo unspecified) | inconclusive: 31.6 µM [inhibitor, full curve, poor fit]
61 | O=C(NCc1ccsc1)c1nc(-c2ccc(Cl)cc2)c2cnccn12 | inconclusive: 17.8 µM [inhibitor, full curve, poor fit]
62 | CNC(=O)c1cc(C2CC2)nc2c1c(C1CCCN(C(=O)N(C)C)C1)nn2C (stereo unspecified) | inactive
63 | c1ccc(C(CN2CCCC(N3CCN(c4ccccc4)CC3)C2)c2ccccc2)cc1 (stereo unspecified) | inconclusive: 25.1 µM [inhibitor, full curve, poor fit]
64 | COCC(=O)Nc1ccc2c(c1)CN(Cc1ccccc1F)C(=O)C(C)O2 (stereo unspecified) | inactive
65 | O=C(NCCc1ccc(Cl)cc1)c1nc(-c2ccc(Cl)nc2)c2cnccn12 | inactive
66 | O=c1c2nc(N3CCC(c4ccccc4)CC3)ccc2ncn1-c1cccnc1 | inconclusive: 112 µM [inhibitor, partial curve]
